# Measured values taken from the supplement of paper PMC11876631.
# ± gives the standard deviation of the averaged measurements. Laboratory Escherichia coli strains with one amino-acid change in an essential protein, pooled on minimal glucose agar with carbenicillin or gentamicin at twice the control MIC (plus kanamycin and chloramphenicol for the plasmids), 48 h. Fold change of barcode share against drug-free plates; higher = less susceptible. Active = above 20 in both replicates (the paper's putatively resistant). '<' = one read or none on drug, '>' = one read or none on a drug-free plate. Shares are relative, so most strains fall below 1 when a few take over. Listed are strains with at least 15 reads on both drug-free plates, and hits; most hits rest on fewer reference reads. Replicate rank correlation about 0.5. Edits are read from barcodes.
# B1: nrdB; numbered along this chain (parent)
# chain: MAYTTFSQTKNDQLKEPMFFGQPVNVARYDQQKYDIFEKLIEKQLSFFWRPEEVDVSRDRIDYQALPEHEKHIFISNLKYQTLLDSIQGRSPNVALLPLISIPELETWVETWAFSETIHSRSYTHIIRNIVNDPSVVFDDIVTNEQIQKRAEGISSYYDELIEMTSYWHLLGEGTHTVNGKTVTVSLRELKKKLYLCLMSVNALEAIRFYVSFACSFAFAERELMEGNAKIIRLIARDEALHLTGTQHMLNLLRSGADDPEMAEIAEECKQECYDLFVQAAQQEKDWADYLFRDGSMIGLNKDILCQYVEYITNIRMQAVGLDLPFQTRSNPIPWINTWLVSDNVQVAPQEVEVSSYLVGQIDSEVDTDDLSNFQL
# B2: cysH; a variant is named by its letters at X, in order (parent)
# chain: MSKLDLNALNELPKVDRILALAETNAELEKLDAEGRVAWALDNLPGEYVLSSSFGIQAAVSXHLXNQIRPDIPVILTDTGYLFPETYRFIDELTDKLKLNLKVYRATESAAWQEARYGKLWEQGVEGIEKYNDINKVEPMNRALKELNAQTWFAGLRREQSGSRANLPVLAIQRGVFKVLPIIDWDNRTIYQYLQKHGLKYHPLWDEGYLSVGDTHTTRKWEPGMAEEETRFFGLKRECGLHEG
# Variants of: B1
# Assay: barcode share on antibiotic plates over drug-free plates; higher = less susceptible
# Conditions: with Escherichia coli (laboratory strain); antibiotic: carbenicillin; 2× MIC (3.1 µg/mL)
# Method: (§1)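 A pool of E. coli strains, each edited to carry one amino-acid change in an essential protein, was grown for 48 h on minimal glucose agar with or without antibiotic; strain barcodes were sequenced; mean of two replicates.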
row,Variant,fold change of barcode share
1,L99Q,0.294 ± 0.053
2,L99W,0.224 ± 0.081
3,I100A,0.5 ± 0.16
4,I100P,0.131 ± 0.091
5,I100Q,0.166 ± 0.019
6,F217W,0.0765 ± 0.0066
7,I232A,0.371 ± 0.12
8,L250A,0.171 ± 0.096
9,L250Q,0.144 ± 0.12
10,L250W,0.0377 ± 0.003

# Same assay, conditions: with Escherichia coli (laboratory strain); antibiotic: gentamicin; 2× MIC (MIC 0.45 µg/mL)
row,Variant,fold change of barcode share
1,L99Q,< 0.00474
2,L99W,< 0.00658
3,I100A,0.0101 ± 0.0083
4,I100P,< 0.0121
5,I100Q,< 0.00752
6,F217W,0.24 ± 0.32
7,I232A,< 0.0125
8,L250A,0.012 ± 0.0019
9,L250Q,0.0868 ± 0.061
10,L250W,0.0617 ± 0.05
11,I127W,< 0.0171

# Variants of: B2
# Assay: as above
# Conditions: with Escherichia coli (laboratory strain); antibiotic: carbenicillin; 2× MIC (3.1 µg/mL)
# Method: as §1
row,Variant,fold change of barcode share
1,LA,0.355 ± 0.17
2,LD,0.477 ± 0.071
3,LP,0.628 ± 0.053
4,LQ,1.6 ± 0.8
5,AV,0.406 ± 0.047
6,WV,0.467 ± 0.011
7,QV,0.429 ± 0.026
8,DV,1.28 ± 1.1
9,PV,0.891 ± 0.29
10,LV I75A,0.382 ± 0.038
11,LV I75W,1.24 ± 0.44
12,LV L93A,0.446 ± 0.067
13,LV L93Q,0.359 ± 0.017
14,LV L93W,0.356 ± 0.032
15,LV L170A,0.419 ± 0.088
16,LV L170P,0.476 ± 0.011
17,LV L170Q,0.488 ± 0.14
18,LV V74A,0.462 ± 0.092

# Same assay, conditions: with Escherichia coli (laboratory strain); antibiotic: gentamicin; 2× MIC (MIC 0.45 µg/mL)
row,Variant,fold change of barcode share
1,LA,0.0048 ± 0.00084
2,LD,0.01547 ± 3.7e-05
3,LP,0.0274 ± 0.0011
4,LQ,0.0259 ± 0.005
5,AV,0.0186 ± 0.0096
6,WV,0.00764 ± 0.0069
7,QV,0.00514 ± 0.0019
8,DV,0.00484 ± 0.0027
9,PV,0.0224 ± 0.028
10,LV I75A,0.0182 ± 0.0078
11,LV L93A,0.00633 ± 0.0047
12,LV L93Q,0.0102 ± 0.0085
13,LV L93W,< 0.00674
14,LV L170A,0.00604 ± 0.0055
15,LV L170P,< 0.00759
16,LV L170Q,0.00946 ± 0.0059
17,LV V74A,< 0.0123
